{"source": "patent US20220089642A1", "about": "(CITY OF HOPE, published 2022)", "target": "receptor binding domain (RBD) of the spike protein (SARS-CoV-2)", "assay": "elution profiles and Western blot", "data": [{"binder": "Fc-ACE2 full length construct (Fc fusion, also called Fc-ACE2 construct; FC-ACE2 construct) not shown", "values": [{"measurement": "binding result", "value": "binds"}]}]}
